The list shows a part of the results.
system: PfHDP1 homeodomain (GST-tagged); assay: gcPBM binding intensity (ln(normalized median fluorescence intensity)); higher = stronger DNA binding
Method in brief: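 Each value is the highest Masliner-normalised natural-log median intensity across replicate spots of either orientation of a probe. The probes were primer-extended double-stranded 36-bp intergenic genomic sequences on an Agilent 4 × 180k array, alongside negative controls, exposed for 1 h to GST-tagged P. falciparum DNA-binding domains expressed in E. coli. Bound protein was picked up with Alexa488 anti-GST antibody and scanned at 488 nm.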

Sequence | gcPBM binding intensity (ln)
ATATATATATATATTGTACACACATTTATGCATATA [CACACA_site9055] | 9.06
AAATGCAAATGATGATGTACATACAAAAATTAAATT [XGTACX_site5323] | 7.1
AAAATGTATATATAAACATGCACACGTGGTTGTATA [TGCATGCA_site847] | 8.08
TATCGTTATATAATATGTACATATAAAATTTAAATT [XGTACX_site1887] | 6.94
TCTTAAATTTCTTTATGTACATAATTAATATATTTA [XGTACX_site4456] | 6.46
TATATATTATGACCACCACACACCTATACGCATAAC [CACACA_site2447] | 6.95
AAAAAAAAAGTATTATGTACATAAAAATAAAAAAAT [XGTACX_site4166] | 6.79
GTTTATGTTAAACCATGTACTTAATATTTTATTCTT [XGTACX_site3761] | 6.29
TATGATTCATAATAGTGTACGTAAAAATTGACTAGA [XGTACX_site5376] | 7.52
ATTGTAGAATTTAATAGTACTCACGAATAAAATAAA [XGTACX_site6280] | 6.39
AAAAATATATAAAGAAAAAGAATATAATATAAAATA [GTGCAC_negctrl_site208] | 6.42
AAAAATAAATATACATGTACTTAAAATAATCGAATA [XGTACX_site8432] | 6.58
TATATTTTTATATTTTGTACATATAGTAAATATAAA [XGTACX_site4768] | 6.2
CTCAAACAATATTATATAATAAAGTACATATATATT [CACACA_negctrl_site446] | 6.75
GAACAGAAAAAGAATAGTACATATATATATATATAT [XGTACX_site3700] | 9.48
ACGTATCAAAAAATTTGTACATATATATATATATAT [XGTACX_site1024] | 9.41
ATTCAAAATAATAGAATTGTTAAAGTTGTAAATTGA [CACACA_negctrl_site727] | 6.16
TATAATATGAACAGTACACACAAAATAAATTCGTAT [CACACA_site3586] | 6.41
TATACATATATATATACACACATATATATATATACA [CACACA_site402] | 6.68

Sequence | gcPBM binding intensity (ln)
ACGCATGTAATTTATACACACATTCTTTTATATTTT [CACACA_site3708] | 6.58
AAATTATTATCGTTAATATGTATATATGTGCCAAGT [TGCATGCA_negctrl_site557] | 6.52
AAAACATACAGATATACACACATATATATATATATA [CACACA_site5091] | 9.42
ATATTTAAACGATGGTGTACATATATTACAAGTTGT [XGTACX_site1743] | 7.03
ATATAGATCTACACTGCACACATTTTTAACACTGCT [CACACA_site1882] | 8.17
GCATTTTAATAATTATGTACATATATTATTCCTGGT [XGTACX_site3664] | 7.07
TTCCATCAAAAAATGGGTACACATTATAGAAATATT [XGTACX_site8482] | 6.39
CATATACGCAAACACACACACATATATATATATATA [CACACA_site501] | 9.26
AGGTATATATATTTATGTACTTAAAATGAGAAAATA [XGTACX_site8337] | 6.47
TATAATAATATTTATTGTACAATTAGGTTAATTCAT [XGTACX_site1986] | 6.67
TTGAAATTAAATGACATACACACTATATTATATATT [CACACA_site3135] | 6.24
AAAAATAAAGTAAAAGCATGCTAGTATATGGAAAAT [TGCATGCA_site486] | 7.36
AATATACGAAATTGTGCACACATATATTTATGTATG [CACACA_site1510] | 10.8
TAAAATGAAGGAATATGTACATAAATAAACATATAT [XGTACX_site6266] | 6.31
CGATATAAAGATATTAGTACATATGCATGCTTGTCT [XGTACX_site8629] | 6.2
CATATATGATATATTAGTACATATATATATATATAT [XGTACX_site1574] | 9.32
AATCTAATGTAATGCATACACACAACTATCCATCAA [CACACA_site535] | 6.65
TTGTTTTTTTTTGGCTGTACGTTCATAAATTTTTTT [XGTACX_site4165] | 6.73
TTTTCATAAAATCATTGTACATTTATCGTATATTAA [XGTACX_site3855] | 6.26

Sequence | gcPBM binding intensity (ln)
AAAATATCTTATATATGTACATATTTATATTTATAT [XGTACX_site6027] | 6.4
ATATTGTAAGTAAACACACACACATATATATGTATA [CACACA_site8124] | 6.76
TATTTGTTGTGAGTCACACATATATATATATATATA [CACACA_site4240] | 9.51
AAAAAAAAAAAAAAAACACACAGAACAATATATAAA [CACACA_site4698] | 6.61
AAGCTATATATAGGCAGTACTTTGTAAGTGTAGATA [XGTACX_site8365] | 6.9
TTTTTTATAAAATTTTTTTTTTAAAATATTAAAACT [XGTACX_negctrl_site240] | 6.07
TTTCTAATTCTTAGTGGTACACAGTTCTGCTGATAT [XGTACX_site2391] | 6.09
ATATGTCACTTGTATACACACATATAGATTTCAATC [CACACA_site7519] | 7.47
TATATGCATATACATACACACATAACACATACGTTT [CACACA_site3832] | 7.14
GGAATGGTACATGATACACACACGCACATATATATA [CACACA_site5825] | 7.24
TATATTAAACAATATACACACATTAATGTATACATA [CACACA_site2755] | 6.69
GTTAAAATTGGGGACGCATGTTCCTTTCCTTTTTTT [TGCATGCA_site1002] | 5.83
TTATAAATGTAACGATGTACTTTTAAAAGTTTCCTT [XGTACX_site109] | 6.22
ACAATTTACACTTAAACACACAAAAAAAAATTATAT [CACACA_site2065] | 6.83
ACATATATATTCATATGTACATATACATACATACAT [XGTACX_site4563] | 7.58
GCATCGATCAAACATACACACATGGTTAATAAAAAT [CACACA_site8651] | 6.83
AAGGTAGAAATATGTTGTACGGTTTGGAGGAAGCAA [XGTACX_site1105] | 6.56
TGTTTTATTTTATTAGTGCATTTTTATTTATAATAG [GTGCAC_site9453] | 9.41
